How the values were obtained:
[1] = biological target: Dual specificity calcium/calmodulin-dependent 3',5'-cyclic nucleotide phosphodiesterase 1A (Homo sapiens, UniProt P54750)
[2] = biological target: cGMP-inhibited 3',5'-cyclic phosphodiesterase 3A (Homo sapiens, UniProt Q14432)
[3] = biological target: 3',5'-cyclic-AMP phosphodiesterase 4D (Homo sapiens, UniProt Q08499)
[4] = biological target: cGMP-specific 3',5'-cyclic phosphodiesterase (Homo sapiens, UniProt O76074)
[5] = biological target: Rod cGMP-specific 3',5'-cyclic phosphodiesterase alpha/beta (Homo sapiens, UniProt P16499+P35913)
[6] = biological target: 3',5'-cyclic-AMP phosphodiesterase 7B (Homo sapiens, UniProt Q9NP56)
[7] = biological target: High affinity cAMP-specific and IBMX-insensitive 3',5'-cyclic phosphodiesterase 8A (Homo sapiens, UniProt O60658)
[8] = biological target: High affinity cGMP-specific 3',5'-cyclic phosphodiesterase 9A (Homo sapiens, UniProt O76083)
[9] = biological target: Dual 3',5'-cyclic-AMP and -GMP phosphodiesterase 11A (Homo sapiens, UniProt Q9HCR9)
in vivo [10] = settings: Crl:CD (SD) IGS, rat, iv, 0.1 mg/kg
in vivo [11] = settings: ICR, mouse, iv, 0.1 mg/kg
in vivo [12] = settings: Crl:CD (SD) IGS, rat, iv, 0.1 mg/kg; remark: listed apart in the source
in vivo [13] = settings: ICR, mouse, iv, 0.1 mg/kg; remark: listed apart in the source
in vivo [14] = settings: Crl:CD (SD) IGS, rat, po, 1 mg/kg
in vivo [15] = settings: ICR, mouse, po, 1 mg/kg
in vivo [16] = settings: Crl:CD (SD) IGS, rat, po, 1 mg/kg; remark: listed apart in the source
in vivo [17] = settings: ICR, mouse, po, 1 mg/kg; remark: listed apart in the source
in vivo [18] = settings: Crl:CD (SD) IGS, rat, po, 1 mg/kg; remark: listed apart in the source
in vivo [19] = settings: ICR, mouse, po, 1 mg/kg; remark: listed apart in the source
in vivo [20] = settings: Crl:CD (SD) IGS, rat, po, 1 mg/kg; remark: listed apart in the source
in vivo [21] = settings: ICR, mouse, po, 1 mg/kg; remark: listed apart in the source
in vivo [22] = settings: ICR, mouse, brain, po, 1 mg/kg
in vivo [23] = settings: Crl:CD (SD) IGS, rat, brain, po, 1 mg/kg
physchem = settings: octanol/water, pH 7.4
[24] = biological target: cAMP and cAMP-inhibited cGMP 3',5'-cyclic phosphodiesterase 10A (Homo sapiens, UniProt Q9Y233); test: biochemical

High affinity cGMP-specific 3',5'-cyclic phosphodiesterase 9A, sequence (O76083 whole entry): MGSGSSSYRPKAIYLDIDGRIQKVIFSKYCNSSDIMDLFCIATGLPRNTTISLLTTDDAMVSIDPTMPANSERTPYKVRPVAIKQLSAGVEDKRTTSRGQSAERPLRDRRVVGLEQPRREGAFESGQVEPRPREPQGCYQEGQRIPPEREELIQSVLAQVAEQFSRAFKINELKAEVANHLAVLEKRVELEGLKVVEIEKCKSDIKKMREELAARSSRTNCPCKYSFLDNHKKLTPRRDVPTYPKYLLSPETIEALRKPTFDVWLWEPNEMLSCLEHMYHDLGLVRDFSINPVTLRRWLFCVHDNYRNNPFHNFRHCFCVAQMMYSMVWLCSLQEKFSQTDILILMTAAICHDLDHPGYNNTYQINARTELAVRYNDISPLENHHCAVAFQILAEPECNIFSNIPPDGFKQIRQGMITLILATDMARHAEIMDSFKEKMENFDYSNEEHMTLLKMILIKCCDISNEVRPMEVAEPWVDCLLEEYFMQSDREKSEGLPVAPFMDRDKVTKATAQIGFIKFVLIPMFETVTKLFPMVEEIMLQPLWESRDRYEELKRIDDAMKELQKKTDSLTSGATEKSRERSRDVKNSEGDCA
High affinity cAMP-specific and IBMX-insensitive 3',5'-cyclic phosphodiesterase 8A, sequence (O60658 whole entry): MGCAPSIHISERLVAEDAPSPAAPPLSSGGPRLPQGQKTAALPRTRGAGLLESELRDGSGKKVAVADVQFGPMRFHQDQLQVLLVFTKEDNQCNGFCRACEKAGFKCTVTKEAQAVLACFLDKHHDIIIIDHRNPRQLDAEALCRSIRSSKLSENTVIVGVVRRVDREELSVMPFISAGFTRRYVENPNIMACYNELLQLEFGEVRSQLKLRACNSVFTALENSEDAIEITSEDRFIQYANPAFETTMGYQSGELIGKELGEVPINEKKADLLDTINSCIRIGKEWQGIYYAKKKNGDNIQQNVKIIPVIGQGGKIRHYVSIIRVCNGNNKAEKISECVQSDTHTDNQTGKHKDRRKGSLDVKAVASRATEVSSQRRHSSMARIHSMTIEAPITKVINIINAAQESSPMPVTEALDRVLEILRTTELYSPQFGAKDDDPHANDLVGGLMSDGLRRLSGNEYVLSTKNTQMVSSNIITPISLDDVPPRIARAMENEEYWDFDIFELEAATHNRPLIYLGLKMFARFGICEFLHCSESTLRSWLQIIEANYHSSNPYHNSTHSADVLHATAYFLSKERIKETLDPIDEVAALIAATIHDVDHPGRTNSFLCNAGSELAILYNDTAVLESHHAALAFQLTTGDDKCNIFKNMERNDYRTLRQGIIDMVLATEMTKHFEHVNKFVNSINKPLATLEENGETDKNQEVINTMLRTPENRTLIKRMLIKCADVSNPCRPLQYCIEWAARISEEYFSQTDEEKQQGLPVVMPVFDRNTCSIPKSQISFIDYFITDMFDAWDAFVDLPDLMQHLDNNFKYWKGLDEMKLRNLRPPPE
3',5'-cyclic-AMP phosphodiesterase 4D, sequence (Q08499 whole entry): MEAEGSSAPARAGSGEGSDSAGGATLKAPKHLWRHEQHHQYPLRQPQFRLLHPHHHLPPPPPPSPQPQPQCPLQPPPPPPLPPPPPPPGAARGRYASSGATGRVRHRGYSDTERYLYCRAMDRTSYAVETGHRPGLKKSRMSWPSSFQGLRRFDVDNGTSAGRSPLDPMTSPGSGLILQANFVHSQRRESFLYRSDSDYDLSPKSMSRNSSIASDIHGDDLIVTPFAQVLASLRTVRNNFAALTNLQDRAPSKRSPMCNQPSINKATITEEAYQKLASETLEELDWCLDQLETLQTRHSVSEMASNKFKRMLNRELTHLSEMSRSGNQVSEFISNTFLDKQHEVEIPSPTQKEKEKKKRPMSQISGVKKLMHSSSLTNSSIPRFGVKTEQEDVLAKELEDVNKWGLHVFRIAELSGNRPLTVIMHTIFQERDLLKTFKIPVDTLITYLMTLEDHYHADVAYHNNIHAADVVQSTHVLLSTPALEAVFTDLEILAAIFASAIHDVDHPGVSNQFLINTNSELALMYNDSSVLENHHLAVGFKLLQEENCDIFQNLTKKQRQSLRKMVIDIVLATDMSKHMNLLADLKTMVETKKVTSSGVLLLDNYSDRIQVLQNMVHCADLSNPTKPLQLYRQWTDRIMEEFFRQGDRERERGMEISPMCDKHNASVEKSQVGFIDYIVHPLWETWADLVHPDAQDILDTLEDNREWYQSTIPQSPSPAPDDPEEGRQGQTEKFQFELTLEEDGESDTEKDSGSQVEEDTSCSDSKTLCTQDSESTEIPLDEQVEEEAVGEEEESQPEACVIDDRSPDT
Rod cGMP-specific 3',5'-cyclic phosphodiesterase alpha/beta, sequence (P35913 whole entry): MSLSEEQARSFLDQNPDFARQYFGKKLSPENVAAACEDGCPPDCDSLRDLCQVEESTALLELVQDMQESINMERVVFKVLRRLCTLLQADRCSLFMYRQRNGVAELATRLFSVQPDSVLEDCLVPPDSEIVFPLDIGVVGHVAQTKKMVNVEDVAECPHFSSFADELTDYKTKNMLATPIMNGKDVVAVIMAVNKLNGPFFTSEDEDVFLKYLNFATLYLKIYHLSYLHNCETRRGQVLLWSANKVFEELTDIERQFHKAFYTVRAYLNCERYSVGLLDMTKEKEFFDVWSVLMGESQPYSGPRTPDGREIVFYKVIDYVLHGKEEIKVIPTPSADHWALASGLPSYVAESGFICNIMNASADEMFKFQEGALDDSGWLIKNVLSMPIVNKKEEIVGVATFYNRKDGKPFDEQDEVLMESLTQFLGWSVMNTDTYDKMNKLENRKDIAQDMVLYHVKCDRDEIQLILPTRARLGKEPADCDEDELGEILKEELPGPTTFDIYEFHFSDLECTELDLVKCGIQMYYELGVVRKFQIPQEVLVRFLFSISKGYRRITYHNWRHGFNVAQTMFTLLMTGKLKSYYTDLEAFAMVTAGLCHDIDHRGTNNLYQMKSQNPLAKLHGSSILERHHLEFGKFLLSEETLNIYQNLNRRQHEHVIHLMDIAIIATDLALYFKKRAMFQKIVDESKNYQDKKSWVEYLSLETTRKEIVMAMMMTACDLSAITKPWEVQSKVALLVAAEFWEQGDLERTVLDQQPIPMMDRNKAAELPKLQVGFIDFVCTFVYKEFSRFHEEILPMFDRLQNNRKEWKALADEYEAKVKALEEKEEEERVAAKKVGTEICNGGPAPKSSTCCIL
Rod cGMP-specific 3',5'-cyclic phosphodiesterase alpha/beta, sequence (P16499 whole entry): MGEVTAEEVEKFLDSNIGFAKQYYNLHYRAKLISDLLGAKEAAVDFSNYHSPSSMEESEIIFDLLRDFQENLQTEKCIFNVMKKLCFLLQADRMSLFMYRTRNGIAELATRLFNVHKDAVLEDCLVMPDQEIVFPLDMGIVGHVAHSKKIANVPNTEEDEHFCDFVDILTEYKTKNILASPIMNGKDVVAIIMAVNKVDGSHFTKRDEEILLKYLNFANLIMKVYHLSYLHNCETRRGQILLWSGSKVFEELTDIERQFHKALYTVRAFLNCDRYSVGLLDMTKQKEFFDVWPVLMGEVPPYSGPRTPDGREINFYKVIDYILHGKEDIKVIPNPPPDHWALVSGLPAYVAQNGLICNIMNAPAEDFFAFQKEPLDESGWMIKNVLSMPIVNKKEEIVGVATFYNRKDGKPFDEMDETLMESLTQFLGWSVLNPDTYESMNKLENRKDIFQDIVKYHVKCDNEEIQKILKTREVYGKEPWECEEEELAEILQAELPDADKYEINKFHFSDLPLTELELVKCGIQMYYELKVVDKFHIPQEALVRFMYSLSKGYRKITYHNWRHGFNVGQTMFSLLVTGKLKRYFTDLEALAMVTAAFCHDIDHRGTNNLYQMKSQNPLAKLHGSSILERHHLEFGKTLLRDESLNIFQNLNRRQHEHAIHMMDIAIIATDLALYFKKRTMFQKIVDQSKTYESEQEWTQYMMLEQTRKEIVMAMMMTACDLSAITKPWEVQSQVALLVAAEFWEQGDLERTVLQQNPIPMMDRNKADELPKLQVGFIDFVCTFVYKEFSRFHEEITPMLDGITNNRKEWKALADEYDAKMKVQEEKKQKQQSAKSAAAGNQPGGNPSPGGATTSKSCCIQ
3',5'-cyclic-AMP phosphodiesterase 7B, sequence (Q9NP56 whole entry): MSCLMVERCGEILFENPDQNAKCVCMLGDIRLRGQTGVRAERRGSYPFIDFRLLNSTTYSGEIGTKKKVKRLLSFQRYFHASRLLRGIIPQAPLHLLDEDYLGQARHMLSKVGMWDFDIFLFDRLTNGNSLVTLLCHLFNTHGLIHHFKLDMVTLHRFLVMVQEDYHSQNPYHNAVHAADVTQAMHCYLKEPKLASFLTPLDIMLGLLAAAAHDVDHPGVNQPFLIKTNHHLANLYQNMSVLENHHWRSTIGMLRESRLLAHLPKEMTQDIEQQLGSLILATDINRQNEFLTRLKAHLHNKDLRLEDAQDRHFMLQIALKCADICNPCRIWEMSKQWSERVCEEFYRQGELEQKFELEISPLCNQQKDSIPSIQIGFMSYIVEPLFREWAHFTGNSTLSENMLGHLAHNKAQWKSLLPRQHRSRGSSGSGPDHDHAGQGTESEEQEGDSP
Dual specificity calcium/calmodulin-dependent 3',5'-cyclic nucleotide phosphodiesterase 1A, sequence (P54750 whole entry): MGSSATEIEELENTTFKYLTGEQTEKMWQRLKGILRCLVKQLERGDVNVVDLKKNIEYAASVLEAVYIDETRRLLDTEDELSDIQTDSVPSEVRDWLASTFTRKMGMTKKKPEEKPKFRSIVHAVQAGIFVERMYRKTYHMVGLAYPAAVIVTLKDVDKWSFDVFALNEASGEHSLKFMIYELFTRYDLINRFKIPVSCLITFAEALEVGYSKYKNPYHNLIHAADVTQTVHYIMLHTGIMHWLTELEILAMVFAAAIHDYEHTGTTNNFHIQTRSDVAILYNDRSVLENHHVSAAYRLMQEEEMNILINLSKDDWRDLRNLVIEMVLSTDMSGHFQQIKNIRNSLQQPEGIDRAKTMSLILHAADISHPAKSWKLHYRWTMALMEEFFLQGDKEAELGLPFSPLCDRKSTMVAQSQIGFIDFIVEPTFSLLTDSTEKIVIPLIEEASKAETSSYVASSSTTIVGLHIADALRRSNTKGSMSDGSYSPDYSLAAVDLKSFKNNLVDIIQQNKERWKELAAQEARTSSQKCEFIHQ

SMILES: CC[C@@H](NC(=O)c1cnn2cc(C)cnc12)c1ccc(OC(F)(F)F)cc1
- IC50 [1]: > 10 µM
- IC50 [2]: 4.2 µM
- IC50 [3]: > 10 µM
- IC50 [4]: > 10 µM
- IC50 [5]: > 10 µM
- IC50 [6]: > 10 µM
- IC50 [7]: > 10 µM
- IC50 [8]: > 10 µM
- IC50 [9]: > 10 µM
- clearance at 8 h (in vivo [10]): 43.9 mL/min/kg
- clearance at 8 h (in vivo [11]): 43.2 mL/min/kg
- Vd at 8 h (in vivo [12]): 3.95 L/kg
- Vd at 8 h (in vivo [13]): 4.36 L/kg
- Cmax at 8 h (in vivo [14]): 15.9 ng/mL
- Cmax at 8 h (in vivo [15]): 44.8 ng/mL
- Tmax at 8 h (in vivo [16]): 1.7 h
- Tmax at 8 h (in vivo [17]): 0.7 h
- AUC(0-t) at 8 h (in vivo [18]): 58.7 ng·h/mL
- AUC(0-t) at 8 h (in vivo [19]): 133 ng·h/mL
- bioavailability at 8 h (in vivo [20]): 15.4%
- bioavailability at 8 h (in vivo [21]): 33.9%
- Kp at 1 h (in vivo [22]): 2.9
- Kp at 2 h (in vivo [23]): 2.6
- chromatographic logD (physchem): 3.46
- IC50 [24]: 7.4 µM

Reference: ChEMBL document CHEMBL4038337, “Discovery of an Orally Bioavailable, Brain-Penetrating, in Vivo Active Phosphodiesterase 2A Inhibitor Lead Series for the Treatment of Cognitive Disorders” (J Med Chem, 2017)
